From PubChem BioAssay AID493208 (National Center for Advancing Translational Sciences (NCATS), 2011)
The whole screen tested about 44,000 compounds, of which about 340 (0.77%) were called active. Roughly 5% stayed inconclusive and do not appear here. Calls follow the shape of the dose curve; as a rule, active = well fitted inhibition curve with a large enough effect; inconclusive = small, poorly fitted or top-dose-only effect; inactive = flat fitted curve, though single readings scatter. Some of the results follow.

assay: Acumen qHTS Assay for Inhibitors of the mTORC1 Signaling Pathway in MEF (Tsc2-/-, p53-/-) Cells: Sytravon; conditions: phospho-rpS6 immunofluorescence/PI, 24 h; series mostly up to 38.3 µM; activity change, negative = inhibition: at the top concentration;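 also: plate controls were DMSO for no effect and rapamycin for full effect; nearly all actives have a fitted effect of over 50% in size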
Method in brief: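 Tsc2-/-, p53-/- MEFs (empty-vector stable line) in DMEM + 10% FBS were treated with compounds 24 h at 37 degree Celsius, fixed, and immunostained for phospho-rpS6 (Alexa-488) with propidium iodide counterstain. Laser-scanning cytometry gave % positive cells, normalized against 7.5 nM rapamycin and DMSO.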

Activity change, negative = inhibition, inactive:
CCn1c(=O)n(-c2ccc3c(c2)OCO3)c2nc(-c3cc(OC)ccc3OC)nc(C(N)=O)c21 -8.17%
COc1ccc(CNC(=O)c2cc(C3CC3)nc3c2c(C)nn3-c2cccc(Cl)c2C)cc1 3.21%
COc1ccc(CNC(=O)c2ccc(NC(=O)N3CCSc4ncccc43)cc2)c(OC)c1 -6.2%
Cc1ccccc1C(=O)Nc1cccc(C(=O)OCc2cc(=O)n3c(C)csc3n2)c1 0%
CCOc1ccc2oc(=O)cc(CN3CCN(C(=O)c4cccc(Cl)c4)CC3)c2c1 2.76%
Cc1ccc(C)c(Nc2nn3c(=O)c4ccc(C(=O)N(C)Cc5ccccc5)cc4nc3s2)c1 -2.32%
CCOC(=O)c1sc2ncn(CC(=O)Nc3cc(C)cc(C)c3)c(=O)c2c1C -0.644%
COC(=O)c1ccccc1NC(=O)Cn1c(=O)cc(-c2ccccc2)c2c(C)nn(C)c21 2.43%
O=C(NCc1ccccc1F)c1cc2ccccn2n1 -7.28%
Cc1ccc(CN2CCc3nc(N4CCN(c5ccccc5F)CC4)ncc3C2)s1 0%
Cc1ccc2oc(=O)c3cc(C(=O)NCc4ccc(Cl)cc4)sc3c2c1 0.88%
Cc1ccc(NC(=O)C2CCCN2S(=O)(=O)c2cccc3nsnc23)c(Br)c1 (configuration not stated) 4.88%
COc1ccc(CNC(=O)c2ccc(NC(=O)N3CCCCc4ccccc43)cc2)c(OC)c1 -10%
Cc1cc(SCC(=O)NCc2ccccc2Cl)nc(=O)[nH]1 2.49%
Cc1cccc(-c2nc(C)c(CCNC(=O)C(=O)Nc3c(C)cc(C)cc3C)s2)c1 -4.09%
COc1ccc(-c2csc3nc(-c4ccc(F)cc4)oc(=O)c23)cc1OC -0.118%
Cc1ccc(-c2noc(CSc3nnc(C)n3-c3ccc(F)cc3)n2)cc1 -6.06%
Cc1cccc(C)c1NC(=O)CCS(=O)(=O)c1ccc2c(c1)n(C)c(=O)c(=O)n2C -3.69%
Cc1cc(O)c(C(c2ccccc2)N2CCN(c3ccccc3F)CC2)c(=O)n1Cc1ccco1 (configuration not stated) 6.69%
CCC(=O)N1CCc2cc(Br)cc(S(=O)(=O)CCC(=O)NCc3ccc(C)cc3)c21 1.07%
COC(=O)c1sc(S(=O)(=O)N2CCN(c3ccc(OC)cc3)CC2)c(C(=O)OC)c1C -19.9%
COc1ccc(CNC(=O)C(=O)Nc2ccccc2OC)cc1 5.44%
COc1ccc(OC)c(NC(=O)CSc2nccn2-c2cc(C)cc(C)c2)c1 -1.47%
CC(=O)Nc1c(C)nn(-c2ccccc2)c1N1CCC(C(=O)Nc2ccc(Cl)cc2C)CC1 -16.3%
COc1cc(NC(=O)CN2C(=O)C(c3ccc(C)cc3)=NC23CCCCCC3)cc(OC)c1 -5.32%
Cc1ccc(-c2nc3ccccc3[nH]2)cc1NC(=O)COc1ccc(Cl)cc1Cl -1.45%
COc1ccc(N2CCN(C(=O)CCc3nnc4n(C)c(=O)c5sccc5n34)CC2)cc1 -11.2%
COc1ccc(-n2c(=O)c3ccc(C(=O)NCc4ccc(C)cc4)cc3n(Cc3ccc(F)cc3Cl)c2=O)cc1 -3.65%
CC1(C)N=C(c2ccc(F)cc2)C(=O)N1CC(=O)Nc1ccccc1Cl -0.808%
CCCC(=O)Nc1nc2c(s1)CC(C(C)(C)C)CC2 (configuration not stated) -0.807%
Cc1ccc(Cn2c3ccccc3c3cnn(CC(=O)N4CCCCCC4)c(=O)c32)cc1 -14.7%
Cc1ccc(CN2C(=O)CC(c3ccc(Cl)cc3)c3c(C)nn(-c4nc(C)cc(C)n4)c32)cc1 (configuration not stated) -3.78%
COc1ccc(-n2nc3c(c2NC(=O)C(=O)NCc2ccccc2)CSC3)cc1 -0.139%
COC(=O)c1cc2oc(C)cc2n1CC(=O)Nc1ccc(OC)c(OC)c1 0.0582%
COC(=O)c1ccc(NC(=O)CSc2nccn2Cc2ccc(Cl)cc2)cc1 -0.553%
CCOc1ccc(-n2c(=O)c3c(C)c(C)sc3n(Cc3c(F)cccc3Cl)c2=O)cc1 7.79%
COc1ccc(N2C(=O)CS(=O)(=O)C23C(=O)N(Cc2ccccc2)c2ccccc23)cc1 (configuration not stated) 6.04%
COc1cccc(-c2nc(S(=O)(=O)c3ccc(C)cc3)c(NCc3ccccc3)o2)c1 -17.7%
Clc1cccc(N2CCN(c3nc4ccccc4c4nc(-c5ccccc5)nn34)CC2)c1 0.382%
CCOc1ccc(-c2nc(CSCC(=O)NCCc3ccccc3)c(C)o2)cc1 3.17%
COc1cccc(CNC(=O)CCCn2c(=O)c3cccn3c3ccc(F)cc32)c1OC 5.37%
Cc1cc(C)cc(NC(=O)Cn2c(=O)n(CCC(C)C)c(=O)c3cccnc32)c1 -7.3%
Cn1c(=O)cc(SCC(=O)NCCc2ccc(Cl)cc2)c2cc(Cl)ccc21 -0.44%
COc1ccc(-c2cc(C(C)=O)c(C)n2CCC(=O)Nc2cccc(C)c2C)cc1 -0.504%
O=C(CSc1nc2ccccc2c2nc(-c3ccccc3)nn12)Nc1ccc(F)cc1 -1.65%
O=C(Cn1c2ncccc2c(=O)n1-c1ccccc1)Nc1cccc(C(F)(F)F)c1 -6.75%
CCc1cccc(NC(=O)Cn2c(=O)n(Cc3ccccc3)c(=O)c3c(C)c(C(=O)N(C)C)sc32)c1 -1.79%
CCOc1ccccc1N(C)C(=O)c1cc(S(=O)(=O)NCc2ccc(C)cc2)ccc1F -11.6%
CN1CCN(C(=O)c2cnn(-c3ccccc3)c2C2CCN(C(=O)OC(C)(C)C)CC2)CC1 5.06%
CCc1nnc(SC(CC)C(=O)NCCOC)c2cc3occc3n12 (configuration not stated) -8.39%
CCc1nn2c(=O)cc(COC(=O)c3cccc(NC(=O)COc4ccccc4F)c3)nc2s1 0%
COc1ccc(Cl)cc1NC(=O)c1cc(=O)c2cc(C)cc(C)c2o1 -5.69%
Cc1ccc(C)c(NC(=O)Cn2cc(S(=O)(=O)N3CCCC3)c(S(=O)(=O)N3CCCC3)c2)c1 -16.9%
Cc1cccc(NC(=O)CSc2nc(C)cc(C)c2C(=O)Nc2ccc(Cl)cc2)c1 0%
CCC(=O)C1=C(c2cccc([N+](=O)[O-])c2)N(C(=O)CC)n2c(nnc2C2CCCCC2)S1 -3.02%
CCc1ccc2c(c1)c(=O)c(S(=O)(=O)c1ccccc1)cn2CC(=O)Nc1cc(C)ccc1C -13.9%
COc1cc(NC(=O)CN(C)S(=O)(=O)c2ccc3c(c2)CCCC(=O)N3)cc(OC)c1OC -3.11%
Cc1ccc(CCNC(=O)Cn2ncc3c(=O)oc4ccccc4c32)cc1 -11%
Cc1ccccc1-c1nc(CS(=O)(=O)CC(=O)Nc2c(C)cccc2C)c(C)o1 -11.5%
Cc1cccc(-c2nc3c4ccccc4n(CC(=O)Nc4cccc(F)c4)c(=O)n3n2)c1 -0.454%
CC(C)(C)OC(=O)N1CCC(c2c(C(=O)N3CCN(c4ccccc4F)CC3)cnn2C(C)(C)C)CC1 -6.78%
CCOC(=O)C1CCN(c2csc3ccc(C)cc3c2=O)CC1 0.323%
COC(=O)c1cc2sc(C)cc2n1Cc1nc(-c2cccc(Br)c2)oc1C -2.69%
N#C/C(=C/c1ccccc1Cl)c1nc(-c2cc3ccccc3oc2=O)cs1 1.88%
COc1cc(C)ccc1OCCSc1nc2ccc(NC(=O)c3ccccc3F)cc2s1 -2.28%
O=C(Cn1c(=O)n(CC2CCCO2)c(=O)c2ccccc21)Nc1ccc(F)cc1F (configuration not stated) -7.65%
COC(=O)c1cc(NC(=O)Cn2nc(-c3ccccc3)c3c(c2=O)CCCC3)cc(C(=O)OC)c1 0.307%
Fc1ccc(NCc2ccccc2-c2nnc(-c3ccccc3Cl)o2)cc1Cl -29.2%
Cc1cccc2cc(-c3nc(-c4cccs4)no3)c(=O)oc12 -5.61%
Cc1sc2ncn(CC(=O)N3CCN(c4cccc(Cl)c4)CC3)c(=O)c2c1S(=O)(=O)N1CCC(C)CC1 0%
CCOc1ccc(C(c2c(O)cc(C)n(CCOC)c2=O)N2CCN(c3ccc(F)cc3)CC2)cc1 (configuration not stated) -1.23%
CCOc1ccc(-n2c(=O)c3c(C)c(C)sc3n(Cc3ccc(C(C)(C)C)cc3)c2=O)cc1 -10.3%
CC(=O)N1CCc2c(sc3c2c(=O)n(-c2cc(Cl)ccc2C)c(=O)n3C)C1 -2.8%
CCN(CC)C(=O)Cn1c(=O)n(CCCCCC(=O)NCc2ccc(C)cc2)c(=O)c2sccc21 -2.04%
CCCCNC(=O)Cn1nc(N2CCN(c3ccccc3OC)CC2)ccc1=O 4.21%
COc1ccc(Cl)cc1NC(=O)COc1cccc2c(=O)n(C)ccc12 -3.26%
COC(=O)c1ccc(NC(=O)CN(C)S(=O)(=O)c2ccc3c(c2)CCCC(=O)N3)cc1 -3.9%
COc1cccc(C(=O)N2CCc3cc(OC)c(OC)cc3C2COc2ccc3c(C)cc(=O)oc3c2)c1 (configuration not stated) -5.77%
CCn1cc(S(=O)(=O)c2cc(C)cc(C)c2)c(=O)c2cc(F)c(N3CCN(c4ccccc4)CC3)cc21 -0.617%
CCCCN(C(=O)CCn1c(=O)oc2ccccc21)c1ccccc1 9.12%
COc1ccc(OCC(=O)N2CCN(C(=O)c3cccc(OC)c3OC)CC2)cc1 5.22%
CCOc1ccc(-c2cc(CCCC(=O)NCCc3ccc(SC)cc3)no2)cc1 -13.6%
COCCn1c(C)cc(O)c(C(c2ccccc2Cl)N2CCN(c3ccccc3)CC2)c1=O (configuration not stated) 3.77%
CCN(CC)C(=O)c1sc2c(c1C)c(=O)n(Cc1ccccc1)c(=O)n2Cc1c(C)cc(C)cc1C -20.5%
O=C(NCC(c1ccco1)S(=O)(=O)c1cccs1)c1c(F)cccc1F (configuration not stated) 2.46%
Cc1cccc(NC(=O)Cn2c(=O)n(CC3CCC(C(=O)NCCc4ccccc4)CC3)c(=O)c3ccccc32)c1C (configuration not stated) -1.02%
CCOC(=O)c1ccc(NC(=O)c2c(NCc3ccc(OC)c(OC)c3OC)sc3c2CCC(C)C3)cc1 (configuration not stated) -0.196%
O=C(NCC(c1cccnc1)N1CCc2ccccc21)c1cccc(F)c1 (configuration not stated) -0.225%
Cc1nn(-c2ccc(N3CCCC3)nn2)c(C)c1CCC(=O)N1CCN(c2ccc(F)cc2)CC1 -5.79%
Cc1ccc(NS(=O)(=O)c2ccc3[nH]c4c(c3c2)CCCCCC4)cc1C -14.5%
CCOc1ccccc1CNC(=O)CCCn1c(=O)c2cccn2c2ccc(F)cc21 7.52%
Cc1ccc(CNC(=O)c2cc(NS(=O)(=O)c3ccc(C)cc3)ccn2)cc1 0.971%
